{"source": "patent US20200179511A1", "about": "“BCMA-TARGETING AGENT, AND COMBINATION THERAPY WITH A GAMMA SECRETASE INHIBITOR” (Novartis AG, priority 2017, published 2020)", "test_system": "KMS 11", "experiment": "RTCC assay, BCMA×CD3 or control CD3 bispecific antibody with or without GSI, BCMA-expressing target cells (Example 3, FIGS. 9A-9B, Table 5)", "type": "cell-based, human", "conditions": "KMS11", "protocol": "Peripheral blood mononuclear cells (PBMCs) were isolated from the blood of healthy human donors using a Ficoll-Paque PLUS (GE Healthcare #17-1440-02) density gradient. T-cells (pan) were isolated from the PBMC fraction by negative selection (Miltenyi #130-096-535, 130-041-407, 130-042-401) and aliquots stored in liquid nitrogen in CryoStor10 solution (HemaCare #210374).\nTarget cells were plated 7,500 cells per well in a 384 well plate (Costar 3765). Cells were treated with or without a gamma secretase inhibitor (GSI, comparison of 3 different compounds) for 30 minutes prior to the addition of 22,500 thawed T-cells, and a serial dilution of BCMA×CD3 bispecific or negative control CD3 bispecific antibodies ranging from 100 nM to 0.1 pM. The base assay media (TCM, or T cell Medium) contains RPMI/1640, 10% FBS, 2 mM L-glutamine, 0.1 mM Non-essential amino acids, 1 mM Sodium pyruvate, 10 mM HEPES, 0.055 mM 2-mercaptoethanol (Gibco 22400089, 16140, 25030-081, 11140-050, 11360-070, 15630-080, 21985-023 respectively). The final concentration of all gamma secretase inhibitors was 2 μM. The assay was incubated at 37° C./5% CO2 for 48 hours, followed by measurements of target cell viability (BrightGlo, Promega # E2650), following vendor supplied protocols. Analysis was done using Graphpad Prism software."}
{"molecule": "FP31: BCMA×CD3 bispecific antibody of Example 3; SEQ ID NOs: 1157-1160 (protein) chain 1: DIVMTQSPDSLAVSLGERATINCKSSQSLFNVRSRKNYLAWYQQKPGQPPKLLISWASTRESGVPDRFSGSGSGTDFTLTISSLQAEDVAVYYCKQSYDLFTFGSGTKLEIKRTVAAPSVFIFPPSDEQLKSGTASVVCLLNNFYPREAKVQWKVDNALQSGNSQESVTEQDSKDSTYSLSSTLTLSKADYEKHKVYACEVTHQGLSSPVTKSFNRGEC chain 2: EIVLTQSPGTLSLSPGERATLSCRASQSVSSSYLAWYQQKPGQAPRLLMYDASIRATGIPDRFSGSGSGTDFTLTISRLEPEDFAVYYCQQYQSWPLTFGQGTKVEIKRTVAAPSVFIFPPSDEQLKSGTASVVCLLNNFYPREAKVQWKVDNALQSGNSQESVTEQDSKDSTYSLSSTLTLSKADYEKHKVYACEVTHQGLSSPVTKSFNRGEC chain 3: EVQLLESGGGLVQPGGSLRLSCAASGFTFSSYPMSWVRQAPGKGLEWVSAIGGSGGSLPYADSVKGRFTISRDNSKNTLYLQMNSLRAEDTAVYYCARYWPMDIWGQGTLVTVSSASTKGPSVFPLAPCSRSTSESTAALGCLVKDYFPEPVTVSWNSGALTSGVHTFPAVLQSSGLYSLSSVVTVPSSNFGTQTYTCNVDHKPSNTKVDKTVERKCEVECPECPAPPVAGPSVFLFPPKPKDTLMISRTPEVTCVVVAVSHEDPEVQFNWYVDGVEVHNAKTKPREEQFNSTFRVVSVLTVVHQDWLNGKEYKCKVSNKGLPSSIEKTISKTKGQPREPQVYTLPPSREEMTKNQVSLTCEVKGFYPSDISVEWESNGQPENNYKTTPPMLDSDGSFFLYSKLTVDKSRWQQGNVFSCSVMHEALHNHYTQKSLSLSPGK chain 4: EVQLVESGGGLVQPGGSLRLSCAASGFTFSDYYMTWVRQAPGKGLEWVAFIRNRARGYTSDHNASVKGRFTISRDNAKNSLYLQMNSLRAEDTAVYYCARDRPSYYVLDYWGQGTTVTVSSASTKGPSVFPLAPCSRSTSESTAALGCLVKDYFPEPVTVSWNSGALTSGVHTFPAVLQSSGLYSLSSVVTVPSSNFGTQTYTCNVDHKPSNTKVDKTVERKCRVRCPRCPAPPVAGPSVFLFPPKPKDTLMISRTPEVTCVVVAVSHEDPEVQFNWYVDGVEVHNAKTKPREEQFNSTFRVVSVLTVVHQDWLNGKEYKCKVSNKGLPSSIEKTISKTKGQPREPQVYTLPPSREEMTKNQVSLTCLVKGFYPSDISVEWESNGQPENNYKTTPPMLDSDGSFFLYSRLTVDKSRWQQGNVFSCSVMHEALHNHYTQKSLSLSPGK", "values": [{"measurement": "effect of gamma secretase inhibitor treatment on potency of bispecific antibody in RTCC", "setting": "GSI 2 μM, 48 hours, FIG. 9A", "value": "enhance the potency"}, {"measurement": "improvement of bispecific antibody potency by GSI", "setting": "three separate gamma secretase inhibitors", "value": "~50", "unit": "fold"}]}
